Assay results reported in patent publication US11814370B2, “Deuterated N-(5-(2,3-dihydrobenzo[b][1,4]dioxine-6-carboxamido)-2-fluorophenyl)-2-((4-ethylpiperazin-1-yl)methyl)quinoline-6-carboxamide” (priority 2016, dated 2023).
Like-named read-outs stand apart in the source and are kept apart here.

Legend:
[1] = test system: Human Hepatocyte; details: for predicted unbound human clearance: predicted from the in vitro hepatocyte data
[2] = mouse; for Clu: Clu = Cl/fub; for Vdu: Vdu = Vss/fub
[3] = rat; for Clu: Clu = Cl/fub; for Vdu: Vdu = Vss/fub
[4] = for fup: mouse plasma, 5 μM, dialysis 4 h at 37° C.; for fub: mouse, fub = fup/B:P
[5] = for fup: rat plasma, 5 μM, dialysis 4 h at 37° C.; for fub: rat, fub = fup/B:P
[6] = in vivo; details: female, CD, rat
[7] = in vitro; details: mouse, cryopreserved pooled hepatocytes in suspension
[8] = in vitro; details: rat, cryopreserved pooled hepatocytes in suspension
[9] = in vitro; details: dog, cryopreserved pooled hepatocytes in suspension
[10] = in vitro; details: human, cryopreserved pooled hepatocytes in suspension
[11] = in vivo; details: female, Balb/C, mouse, 5 mg/kg

SMILES	predicted unbound human clearance [1] [mL/min/kg]	Clu [2] [mL/min/kg]	Vdu [2] [L/kg]	Clu [3] [mL/min/kg]	Vdu [3] [L/kg]	fup [4]	fub [4]	fup [5]	fub [5]	hepatocyte CLint at 1 μM [7] [µL/min/1e6 cells]	hepatocyte CLint at 1 μM [8] [µL/min/1e6 cells]	hepatocyte CLint at 1 μM ([9]; female) [µL/min/1e6 cells]	hepatocyte CLint at 1 μM ([9]; male) [µL/min/1e6 cells]	hepatocyte CLint at 1 μM [10] [µL/min/1e6 cells]	further results
[2H]C([2H])([2H])C([2H])([2H])N1CCN(Cc2ccc3cc(C(=O)Nc4cc(NC(=O)c5ccc6c(c5)OCCO6)ccc4F)ccc3n2)CC1 [Compound A, N-(5-(2,3-Dihydrobenzo[b][1,4]dioxine-6-carboxamido)-2-fluorophenyl)-2-((4-ethyl-d5-piperazin-1-yl)methyl)quinoline-6-carboxamide]	30	1000	140	625	140	0.0397	0.012	0.0365	0.040	44	24	73	37	5	predicted improvement in human unbound clearance ([1]; compound A compared to compound D): 2 fold; human hepatocyte stability compared to reference Compound D (in words) ([1]; human hepatocyte stability assay): improved in vitro properties; ADME advantage in vivo compared to Compound D (in words) [2]: did not show any ADME advantage; ADME advantage in vivo compared to Compound D (in words) [3]: did not show any ADME advantage; bioavailability [6]: 20%; half-life [6]: 210 min; Vd ([6]; 1 mg/Kg): 5.6 L/kg; clearance ([6]; 1 mg/Kg): 25 mL/min/kg
[2H]C1([2H])N(CC)C([2H])([2H])C([2H])([2H])N(Cc2ccc3cc(C(=O)Nc4cc(NC(=O)c5ccc6c(c5)OCCO6)ccc4F)ccc3n2)C1([2H])[2H] [Compound B, N-(5-(2,3-Dihydrobenzo[b][1,4]dioxine-6-carboxamido)-2-fluorophenyl)-2-((4-ethyl-piperazin-d8-1-yl)methyl)quinoline-6-carboxamide]	–	–	–	–	–	–	–	–	–	–	38	–	–	–	–
[2H]C1([2H])Oc2ccc(C(=O)Nc3ccc(F)c(NC(=O)c4ccc5nc(CN6CCN(CC)CC6)ccc5c4)c3)cc2OC1([2H])[2H] [Compound C, N-(5-(2,3-Dihydrobenzo-d4-[b][1,4]dioxine-6-carboxamido)-2-fluorophenyl)-2-((4-ethylpiperazin-1-yl)methyl)quinoline-6-carboxamide]	–	–	–	–	–	–	–	–	–	53	25	73	30	9	–
CCN1CCN(Cc2ccc3cc(C(=O)Nc4cc(NC(=O)c5ccc6c(c5)OCCO6)ccc4F)ccc3n2)CC1 [Compound D, N-(5-(2,3-Dihydrobenzo[b][1,4]dioxine-6-carboxamido)-2-fluorophenyl)-2-((4-ethylpiperazin-1-yl)methyl)quinoline-6-carboxamide]	54	833	158	750	228	0.0425	0.012	0.0344	0.032	42	38	40	31	9	Vd [11]: 1.9 L/kg; clearance [11]: 10 mL/min/kg; half-life [11]: 246 min; AUC(0-t) ([11]; po): 6.05 µM·h
